Tested on: bone marrow-derived macrophages (BMM)
Assay: Osteoclast differentiation and TRAP staining
Settings: M-CSF 30 ng/ml and RANKL 100 ng/ml, 4 days, TRAP staining, osteoclasts having 5 or more nuclei, FIG. 2
From the text: The differentiation of osteoclasts occurs by intercellular binding as the differentiation of individual bone marrow-derived macrophages proceeds. Accordingly, only bone marrow-derived macrophages were isolated and cultured, and the separated macrophages were differentiated into osteoclasts.
In order to determine the degree of differentiation of the differentiated osteoclasts, TRAP (tartrate-resistant acid phosphatase) stain assay was used. When macrophages differentiate into osteoclasts, they produce TRAP, which can be stained to quantify the degree of osteoclast differentiation. In addition, in order to confirm the maturity of osteoclasts, the number of cells constituting osteoclasts was identified. As described above, the degree of differentiation of osteoclasts was analyzed using two indicators: the number of nuclei in osteoclast and TRAP (tartrate-resistant acid phosphatase) stain. […]
To generate osteoclasts, BMMs were cultured in a 48-well plate (4×10^4 cells/well) for 4 days with α-MEM complete medium containing 10% (v/v) heat-inactivated fetal bovine serum (FBS) and 50 units/ml of penicillin/streptomycin in the presence of M-CSF (30 ng/ml) and RANKL (100 ng/ml). […] The degree of differentiation was evaluated by determining the number of differentiated osteoclasts per well based on osteoclasts having 5 or more nuclei in the cell.

In the case of O=C1NC(Cc2ccccc2)C(=O)N2CCCC12 [cFP, cyclo-L-phenylalanyl-L-proline], the “differentiation of bone marrow-derived macrophages into osteoclasts” value is reported as “inhibited in a concentration-dependent manner”.
